This sample is rich in variants without activity.
B1: TPR 5TU (parent)
chain: GGAUCUUCUCGAUCUAACAAAAAAGACAAAUCUGCCACAAAGCUUGAGAGCAUCUUCGGAUGCAGAGGCGGCAGCCUUCGGUGGCGCGAUAGCGCCAACGUUCUCAACUAUGACACGCAAAACGCGUGCUCCGUUGAAUGGAGUUUAUCAUG

Variants of: B1
Experiment: polymerase ribozyme fitness, log enrichment relative to wild type (log ratio); higher = more active; in vitro selection for triplet polymerase activity
Outline: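 To select mutant libraries of each subunit of a heterodimeric triplet polymerase ribozyme, built by PCR and transcribed, each was annealed with a biotinylated primer, partner subunit and triplets, then incubated frozen at −7 °C. Extended constructs were gel-excised, captured on streptavidin beads and amplified by RT-PCR, in one round carried out in triplicate. Illumina sequencing of input and output libraries kept genotypes with ≥10 input reads and ≥1 read per output. Fitness is the base-2 logarithm of genotype enrichment relative to wild-type enrichment, from inverse-variance-weighted replicate averages.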

Variant	polymerase ribozyme fitness (log ratio)
A22U A29G C35G U44G C57U C114A	≤ -4.2
A22U A29U A40G U56A C57U C95A G126C G133A U139C G152A	≤ -4.2
A22U A37C G88C G92U G140C	≤ -4.2
A22U A37U C51U C87A	≤ -4.2
A22U A37U G50C U56A A66G A147U G152U	≤ -4.2
A22U A39C U61A C72U C85G G141A	≤ -4.2
A22U A39U C96A C118G A122C C149A	≤ -4.2
A22U A39U G50A C96A C108G C116U A120U	≤ -4.2
A22U A39U G68A U77A G80U C96G	≤ -4.2
A22U A40C G65A	-3.81
A22U A40G U61G G65C U104G C116G G143C	≤ -4.2
A22U A41C A52U G124U	-2.3
A22U A41C C63U A107U	≤ -4.2
A22U A47G U56C G92C C105U	-3.13
A22U A47U C54U U77A U90G U139A G140U G141U C149G	≤ -4.2
A22U A47U G58U G92C A150C	≤ -4.2
A22U A47U G59U G86U A91U A113U G143C A150G	≤ -4.2
A22U A49C C57U C85A A137C G140U U145G	≤ -4.2
A22U A52G A73U G88A C118U	≤ -4.2
A22U A52G U55A U78A C85U C87U C103A G126C U144C	≤ -4.2
A22U A52U U78A C85U U127A A137C	≤ -4.2

Variant	polymerase ribozyme fitness (log ratio)
A22U A64C U77A C116U C131G	≤ -4.2
A22U A73G U82A	1.72
A22U A106G	1.21
A22U A150C	-2.85
A22U C27A C85G G100A	≤ -4.2
A22U C27A G34A C54A G65U A91U C93U C105U	≤ -4.2
A22U C32A C35A G92C C108G C118U U144A	≤ -4.2
A22U C32G A41U G59A A107C U127C	≤ -4.2
A22U C32U U55G U56C C75A G88U C105U A142U	≤ -4.2
A22U C35A A40C C93U	≤ -4.2
A22U C35U A41U G74U G80A C85U A110U G141U	≤ -4.2
A22U C35U G42A A60U A89U C149U	≤ -4.2
A22U C35U G48U G80A C87G C103U A138G U148G	≤ -4.2
A22U C35U G67A U127A	≤ -4.2
A22U C35U U55A G59A G65A C85U C105A	≤ -4.2
A22U C36U U78C U146C	-3.63
A22U C38A G59A C85U C95A	-0.962
A22U C38U G67A C75U C85G G100U U101G A120C G124C	≤ -4.2
A22U C51G C69U C79U A91U G100A A115G U148A U151C	≤ -4.2
A22U C51G G84A C114U U130A G141A	≤ -4.2
A22U C51G G86U C99U U139C	≤ -4.2

Variant	polymerase ribozyme fitness (log ratio)
A22U C54A	-0.932
A22U C54A A91G	-3.53
A22U C57A G68U G84C C99A A142C	≤ -4.2
A22U C57G C79G C96U U146A U148A	≤ -4.2
A22U C57G C93G U151G	≤ -4.2
A22U C57U U78A C79U G84C G117C	≤ -4.2
A22U C76G C79U G81C A91U C118A U148C	≤ -4.2
A22U C76U	0.515
A22U C79G U135A A138G	≤ -4.2
A22U C85G C96G G133U	≤ -4.2
A22U C85G C125U G140A	≤ -4.2
A22U C85G U104C C108A G143U	≤ -4.2
A22U C87G C114U U148A	≤ -4.2
A22U C87G C116G	≤ -4.2
A22U C96U A121U U139A	-4.03
A22U C99G C116U	-0.689
A22U C99U U101G A115U U151G	≤ -4.2
A22U G25A C51U G94A	≤ -4.2
A22U G25A G84U A89G	≤ -4.2
A22U G25C G48C A122U	≤ -4.2
A22U G34U A106U U144A	≤ -4.2

Variant	polymerase ribozyme fitness (log ratio)
A22U G34U U53A U55A C85U A98G	≤ -4.2
A22U G46A	0.387
A22U G46U C69A C93A C131A U148A	≤ -4.2
A22U G48C G59A C76A C85A C116A G143C	≤ -4.2
A22U G50C U53G G88C C93U C96U C108U	≤ -4.2
A22U G50U	1.37
A22U G58A G59U U82G C95U A97U C114U A115G A142U	≤ -4.2
A22U G65A G71A C93U G141A	≤ -4.2
A22U G67A	≤ -4.2
A22U G67U A120U G133U A142C	≤ -4.2
A22U G71A	-2.64
A22U G80A	0.375
A22U G80C G86U C99G U109G U127G G141C	≤ -4.2
A22U G83C G84A U101A C123A	-4.08
A22U G86A G92U	-1.74
A22U G92U U102A A122U U127G U134G	≤ -4.2
A22U G94U G141A G143C	≤ -4.2
A22U G140A	-2.83
A22U G141C	1.14
A22U U31A A66G C95A A97U A113U C123A	≤ -4.2
